The target in one test is human 5-HT2C receptor (Homo sapiens (Human), UniProt P28335). The conditions noted are these: read-out: 5-HT2C receptor binding inhibition constant Ki; [3H]-mesulergine, h-5-HT2C/CHO cell membrane.
In another test the target is human D2L receptor (Homo sapiens (Human), UniProt P14416). Briefly: Dopamine D2L receptor binding test. The note with it: read-out: D2L receptor IC50 value; [3H]-spiperone, human D2L receptor-expressed CHO cell membrane.

A value given as a limit tells only on which side of the number the result lay.

What is called Ki is a dissociation constant, usually derived from enzyme kinetics or from competition with a known ligand. What is called IC50 is the concentration needed to halve the response being measured.

UniProt P28335, sequence (P28335 whole entry, looked up): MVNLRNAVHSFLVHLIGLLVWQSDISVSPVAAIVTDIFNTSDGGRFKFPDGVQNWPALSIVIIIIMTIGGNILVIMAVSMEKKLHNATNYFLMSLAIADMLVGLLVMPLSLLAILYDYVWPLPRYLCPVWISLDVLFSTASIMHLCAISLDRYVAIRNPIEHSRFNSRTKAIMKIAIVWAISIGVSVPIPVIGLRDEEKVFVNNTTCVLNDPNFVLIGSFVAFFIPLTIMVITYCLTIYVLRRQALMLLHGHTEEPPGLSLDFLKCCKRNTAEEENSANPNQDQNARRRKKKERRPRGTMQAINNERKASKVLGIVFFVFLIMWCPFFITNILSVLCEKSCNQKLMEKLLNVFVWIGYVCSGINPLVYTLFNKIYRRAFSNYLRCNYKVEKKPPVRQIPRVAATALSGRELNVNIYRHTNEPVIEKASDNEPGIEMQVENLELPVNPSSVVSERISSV
UniProt P14416, sequence (P14416 whole entry): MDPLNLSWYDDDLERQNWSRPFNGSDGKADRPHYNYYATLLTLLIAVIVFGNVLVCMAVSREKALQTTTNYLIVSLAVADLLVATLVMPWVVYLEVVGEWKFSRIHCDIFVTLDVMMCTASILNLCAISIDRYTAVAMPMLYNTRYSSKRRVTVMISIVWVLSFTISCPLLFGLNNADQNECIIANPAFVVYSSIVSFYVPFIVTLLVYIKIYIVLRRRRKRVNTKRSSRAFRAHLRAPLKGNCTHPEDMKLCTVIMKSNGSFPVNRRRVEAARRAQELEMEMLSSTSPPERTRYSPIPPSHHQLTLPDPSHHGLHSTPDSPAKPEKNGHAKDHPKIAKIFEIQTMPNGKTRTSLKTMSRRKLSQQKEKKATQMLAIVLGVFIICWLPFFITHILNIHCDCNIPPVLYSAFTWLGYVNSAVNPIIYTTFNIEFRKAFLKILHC

`CNCc1cc(OCc2cc(Cl)ccc2F)n(C(C)C2CCCC2)n1` (centres unmarked) [Example 291, 1-{5-[(5-chloro-2-fluorobenzyl)oxy]-1-(1-cyclopentylethyl)-1H-pyrazol-3-yl}-N-methylmethanamine]: on human 5-HT2C receptor, the Ki turned out to be 4.1 nM.
Same read-out and setting: next, `CNCc1cc(OCc2cc(F)ccc2F)n(Cc2ccc(Cl)cc2)n1` [Example 224, 1-{1-(4-chlorobenzyl)-5-[(2,5-difluorobenzyl)oxy]-1H-pyrazol-3-yl}-N-methylmethanamine]: 6.6 nM.
For `CNCc1cc(OCc2cc(F)ccc2F)n(CC2CCC(F)(F)CC2)n1` [Example 124, 1-{5-[(2,5-difluorobenzyl)oxy]-1-[(4,4-difluorocyclohexyl)methyl]-1H-pyrazol-3-yl}-N-methylmethanamine], the Ki on human 5-HT2C receptor stood at 16 nM.
Turning to `CNCc1cc(OCc2ccccc2F)n(CC2CCCCC2)n1` [Example 20, 1-{1-(cyclohexylmethyl)-5-[(2-fluorobenzyl)oxy]-1H-pyrazol-3-yl}-N-methylmethanamine], the Ki at human 5-HT2C receptor worked out at 9 nM.
In the case of `CNCc1cc(OCc2cc(F)ccc2F)n(C(C)C2CCCCC2)n1` (centres unmarked) [Example 303, 1-{1-(1-cyclohexylethyl)-5-[(2,5-difluorobenzyl)oxy]-1H-pyrazol-3-yl}-N-methylmethanamine], on human 5-HT2C receptor, the Ki was determined as 4.7 nM.
For `CNCc1cc(OCc2ccc(F)cc2C)n(C(C)C2CCCCC2)n1` (centres unmarked) [Example 302, 1-{1-(1-cyclohexylethyl)-5-[(4-fluoro-2-methylbenzyl)oxy]-1H-pyrazol-3-yl}-N-methylmethanamine], the Ki on human 5-HT2C receptor was found to be 5.5 nM.
On to `CNCc1cc(OCc2cccc(Cl)c2)n(CC2OC3CCC2CC3)n1` (centres unmarked) [Example 508, 1-{5-[(3-chlorobenzyl)oxy]-1-(2-oxabicyclo[2.2.2]oct-3-ylmethyl)-1H-pyrazol-3-yl}-N-methylmethanamine], for which the Ki on human 5-HT2C receptor was found to be 7.7 nM.
With `CNCc1cc(OCc2cc(Cl)ccc2Cl)n(CC2CCCCC2)n1` [Example 38, 1-{1-(cyclohexylmethyl)-5-[(2,5-dichlorobenzyl)oxy]-1H-pyrazol-3-yl}-N-methylmethanamine], at human 5-HT2C receptor, the Ki is 6.2 nM.
Regarding `CNCc1cc(OCc2cc(C)ccc2F)n(C(C)C2CCCCC2)n1` (centres unmarked) [Example 305, 1-{1-(1-cyclohexylethyl)-5-[(2-fluoro-5-methylbenzyl)oxy]-1H-pyrazol-3-yl}-N-methylmethanamine], the Ki on human 5-HT2C receptor was 3.7 nM.
Same read-out and setting: next, `CNCc1cc(OCc2ccccc2)n(CC2(C)CCCCC2)n1` [Example 331, 1-{5-(benzyloxy)-1-[(1-methylcyclohexyl)methyl]-1H-pyrazol-3-yl}-N-methylmethanamine]: 5.9 nM; `CNCc1cc(OCc2cc(Cl)ccc2F)n(CC2CC3CCC2C3)n1` (centres unmarked) [Example 118, 1-{1-(bicyclo[2.2.1]hept-2-ylmethyl)-5-[(5-chloro-2-fluorobenzyl)oxy]-1H-pyrazol-3-yl}-N-methylmethanamine]: 2.1 nM; `CNCc1cc(OCc2ccc(F)cc2Cl)n(C(C)C2CCCCC2)n1` (centres unmarked) [Example 301, 1-{5-[(2-chloro-4-fluorobenzyl)oxy]-1-(1-cyclohexylethyl)-1H-pyrazol-3-yl}-N-methylmethanamine]: 4.6 nM.
The same measure, in the same setting: in the case of `CNCc1cc(OCc2ccc(F)cc2Cl)n(CC2CCCCC2)n1` [Example 30, 1-{5-[(2-chloro-4-fluorobenzyl)oxy]-1-(cyclohexylmethyl)-1H-pyrazol-3-yl}-N-methylmethanamine] it was 4.8 nM; in that of `CNCc1cc(OCc2ccc(F)cc2)n(C(C)C2CCCCC2)n1` (centres unmarked) [Example 295, 1-{1-(1-cyclohexylethyl)-5-[(4-fluorobenzyl)oxy]-1H-pyrazol-3-yl}-N-methylmethanamine], 2.2 nM.
Still for that read-out and setting: next, `CNCc1cc(OCc2cc(F)ccc2F)n(CC2CC3CCC2C3)n1` (centres unmarked) [Example 117, 1-{1-(bicyclo[2.2.1]hept-2-ylmethyl)-5-[(2,5-difluorobenzyl)oxy]-1H-pyrazol-3-yl}-N-methylmethanamine]: 3.8 nM; `CNCc1cc(OCc2cccc(C)c2)n(C(C)C2CCCCC2)n1` (centres unmarked) [Example 299, 1-{1-(1-cyclohexylethyl)-5-[(3-methylbenzyl)oxy]-1H-pyrazol-3-yl}-N-methylmethanamine]: 6.8 nM.
`CNCc1nn(CC2CCCCC2)c(OCc2cc(F)ccc2F)c1F` [Example 351]: the Ki on human 5-HT2C receptor came out at 43 nM.
Consider `CNCc1cc(OCc2ccccc2F)n(C(C)C2CCCCC2)n1` (centres unmarked) [Example 293, 1-{1-(1-cyclohexylethyl)-5-[(2-fluorobenzyl)oxy]-1H-pyrazol-3-yl}-N-methylmethanamine], for which the Ki on human 5-HT2C receptor worked out at 6.4 nM.
On the same count and under the same terms, in the case of `CNCc1cc(OCc2ccccc2)n(C(C)C2CCCCC2)n1` (centres unmarked) [Example 292, 1-[5-(benzyloxy)-1-(1-cyclohexylethyl)-1H-pyrazol-3-yl]-N-methylmethanamine] it was 3.8 nM; in that of `CNCc1cc(OCc2ccccc2C)n(C(C)C2CCCCC2)n1` (centres unmarked) [Example 298, 1-{1-(1-cyclohexylethyl)-5-[(2-methylbenzyl)oxy]-1H-pyrazol-3-yl}-N-methylmethanamine], 6.8 nM; in that of `CNCc1cc(OCc2cc(F)ccc2F)n(CC2CCCC2)n1.Cl` [Example 147, 1-{1-(cyclopentylmethyl)-5-[(2,5-difluorobenzyl)oxy]-1H-pyrazol-3-yl}-N-methylmethanamine], 4.3 nM.
Consider `CNCc1cc(OCc2cc(Cl)ccc2F)n(C(C)C2CCCCC2)n1` (centres unmarked) [Example 304, 1-{5-[(5-chloro-2-fluorobenzyl)oxy]-1-(1-cyclohexylethyl)-1H-pyrazol-3-yl}-N-methylmethanamine], for which the Ki at human 5-HT2C receptor was 2 nM.
`CNCc1cc(OCc2cc(F)ccc2Cl)n(CC2CCCCC2)n1` [Example 37, 1-{5-[(2-chloro-5-fluorobenzyl)oxy]-1-(cyclohexylmethyl)-1H-pyrazol-3-yl}-N-methylmethanamine]: the Ki at human 5-HT2C receptor came out at 9.2 nM.
On to `CNCc1cc(OCc2ccccc2C#N)n(CC2CCCC2)n1` [Example 162, 2-[({1-(cyclopentylmethyl)-3-[(methylamino)methyl]-1H-pyrazol-5-yl}oxy)methyl]benzonitrile], for which, on human 5-HT2C receptor, the Ki came out at 14 nM.
On the same count and under the same terms, in the case of `CNCc1cc(OCc2ccccc2Cl)n(CC2CCCC2)n1` [Example 138, 1-{5-[(2-chlorobenzyl)oxy]-1-(cyclopentylmethyl)-1H-pyrazol-3-yl}-N-methylmethanamine] it was 9.1 nM; in that of `CNCc1cc(OCc2ccc(F)cc2F)n(C(C)C2CCCCC2)n1` (centres unmarked) [Example 300, 1-{1-(1-cyclohexylethyl)-5-[(2,4-difluorobenzyl)oxy]-1H-pyrazol-3-yl}-N-methylmethanamine], 3.3 nM; in that of `CNCc1cc(OCc2cc(F)ccc2F)n(CC2(F)CCCCC2)n1` [Example 127, 1-{5-[(2,5-difluorobenzyl)oxy]-1-[(1-fluorocyclohexyl)methyl]-1H-pyrazol-3-yl}-N-methylmethanamine], 7 nM.
In the case of `CC(C)(C)CCn1nc(CN)cc1OCc1cc(F)ccc1F` [Example 485], the IC50 on human D2L receptor is greater than 1000 nM.
For the compound `CNCc1cc(OCc2ccc(F)cc2C)n(CC2CCCCO2)n1` (centres unmarked) [Example 108, 1-{5-[(4-fluoro-2-methylbenzyl)oxy]-1-(tetrahydro-2H-pyran-2-ylmethyl)-1H-pyrazolo-3-yl}-N-methylmethanamine], the inhibition constant (Ki) on human 5-HT2C receptor was 18 nM.

The record behind these values is patent publication US11576897B2, “Therapeutic agent for non-motor symptoms associated with Parkinson's disease” (priority 2017, dated 2023).
